Experimental data reported in the supplement of paper PMC8728848.
This is one part of the list.

Assays:
Experiment in all cases: glycan array binding signal (z-score within array); higher = stronger binding
Conditions in all cases: glycan notation: IUPAC condensed, linker removed
Gal(a1-4)Gal(b1-4)GlcNAc = molecular target: Gal(a1-4)Gal(b1-4)GlcNAc
In short: (§1)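 Negative Z-scores can be read as non-binding. The Z-score is calculated within each array and then averaged across arrays of one protein sequence at different concentrations or buffers and across linkers. Arrays, 3228 in all, were curated from the Consortium for Functional Glycomics database and kept only where the protein sequence was available.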

[1] = molecular target: Gal(a1-4)Gal(b1-4)GlcNAc(b1-2)Man(a1-3)[Gal(a1-4)Gal(b1-4)GlcNAc(b1-2)Man(a1-6)]Man(b1-4)GlcNAc(b1-4)GlcNAc
In short: as §1

[2] = molecular target: Gal(a1-4)Gal(b1-4)GlcNAc(b1-3)Gal(b1-4)Glc
In short: as §1

Gal(a1-4)GlcNAc = molecular target: Gal(a1-4)GlcNAc
In short: as §1

Gal(a1-6)Glc = molecular target: Gal(a1-6)Glc
In short: as §1

Gal(b1-2)Gal = molecular target: Gal(b1-2)Gal
In short: as §1

Gal(b1-3)Gal = molecular target: Gal(b1-3)Gal
In short: as §1

Gal(b1-3)Gal(b1-4)GlcNAc = molecular target: Gal(b1-3)Gal(b1-4)GlcNAc
In short: as §1

[3] = molecular target: Gal(b1-3)Gal(b1-4)GlcNAc(b1-2)Man(a1-3)[Gal(b1-3)Gal(b1-4)GlcNAc(b1-2)Man(a1-6)]Man(b1-4)GlcNAc(b1-4)GlcNAc
In short: as §1

Gal(b1-3)GalNAc = molecular target: Gal(b1-3)GalNAc
In short: as §1

[4] = molecular target: Gal(b1-3)GalNAc(a1-3)[Fuc(a1-2)]Gal(b1-4)Glc
In short: as §1

[5] = molecular target: Gal(b1-3)GalNAc(a1-3)[Fuc(a1-2)]Gal(b1-4)GlcNAc
In short: as §1

[6] = molecular target: Gal(b1-3)GalNAc(b1-3)Gal(a1-4)Gal(b1-4)Glc
In short: as §1

[7] = molecular target: Gal(b1-3)GalNAc(b1-4)Gal(b1-4)Glc
In short: as §1

[8] = molecular target: Gal(b1-3)GalNAc(b1-4)[Neu5Ac(a2-3)]Gal(b1-4)Glc
In short: as §1

Gal(b1-3)GlcNAc = molecular target: Gal(b1-3)GlcNAc
In short: as §1

[9] = molecular target: Gal(b1-3)GlcNAc(a1-3)Gal(b1-4)GlcNAc
In short: as §1

[10] = molecular target: Gal(b1-3)GlcNAc(a1-6)Gal(b1-4)GlcNAc
In short: as §1

[11] = molecular target: Gal(b1-3)GlcNAc(b1-2)Man(a1-3)[Gal(b1-3)GlcNAc(b1-2)Man(a1-6)]Man(b1-4)GlcNAc(b1-4)GlcNAc
In short: as §1

[12] = molecular target: Gal(b1-3)GlcNAc(b1-2)Man(a1-3)[Gal(b1-3)GlcNAc(b1-2)Man(a1-6)]Man(b1-4)GlcNAc(b1-4)[Fuc(a1-6)]GlcNAc
In short: as §1

[13] = molecular target: Gal(b1-3)GlcNAc(b1-2)Man(a1-3)[GlcNAc(b1-4)][Gal(b1-3)GlcNAc(b1-2)Man(a1-6)]Man(b1-4)GlcNAc(b1-4)GlcNAc
In short: as §1

[14] = molecular target: Gal(b1-3)GlcNAc(b1-2)[Gal(b1-3)GlcNAc(b1-6)]Man(a1-6)[Gal(b1-3)GlcNAc(b1-2)Man(a1-3)]Man(b1-4)GlcNAc(b1-4)GlcNAc
In short: as §1

[15] = molecular target: Gal(b1-3)GlcNAc(b1-3)Gal(b1-3)GlcNAc
In short: as §1

[16] = molecular target: Gal(b1-3)GlcNAc(b1-3)Gal(b1-4)Glc
In short: as §1

[17] = molecular target: Gal(b1-3)GlcNAc(b1-3)Gal(b1-4)GlcNAc
In short: as §1

[18] = molecular target: Gal(b1-3)GlcNAc(b1-3)Gal(b1-4)GlcNAc(b1-6)[Gal(b1-3)GlcNAc(b1-3)]Gal(b1-4)Glc
In short: as §1

[19] = molecular target: Gal(b1-3)GlcNAc(b1-3)Gal(b1-4)[Fuc(a1-3)]GlcNAc(b1-6)[Gal(b1-3)GlcNAc(b1-3)]Gal(b1-4)Glc
In short: as §1

[20] = molecular target: Gal(b1-3)GlcNAc(b1-3)GalNAc
In short: as §1

[21] = molecular target: Gal(b1-3)GlcNAc(b1-6)Gal(b1-4)GlcNAc
In short: as §1

[22] = molecular target: Gal(b1-3)GlcNAc(b1-6)GalNAc
In short: as §1

Gal(b1-3)GlcNAc6S = molecular target: Gal(b1-3)GlcNAc6S
In short: as §1

[23] = molecular target: Gal(b1-3)[Fuc(a1-4)]GlcNAc
In short: as §1

[24] = molecular target: Gal(b1-3)[Fuc(a1-4)]GlcNAc(b1-2)Man(a1-3)[Gal(b1-3)[Fuc(a1-4)]GlcNAc(b1-2)Man(a1-6)]Man(b1-4)GlcNAc(b1-4)[Fuc(a1-6)]GlcNAc
In short: as §1

[25] = molecular target: Gal(b1-3)[Fuc(a1-4)]GlcNAc(b1-3)Gal(b1-3)[Fuc(a1-4)]GlcNAc
In short: as §1

[26] = molecular target: Gal(b1-3)[Fuc(a1-4)]GlcNAc(b1-3)Gal(b1-4)GlcNAc
In short: as §1

[27] = molecular target: Gal(b1-3)[Fuc(a1-4)]GlcNAc(b1-3)Gal(b1-4)[Fuc(a1-3)]GlcNAc
In short: as §1

[28] = molecular target: Gal(b1-3)[Fuc(a1-4)]GlcNAc(b1-6)GalNAc
In short: as §1

[29] = molecular target: Gal(b1-3)[GlcNAc(b1-6)]GalNAc
In short: as §1

[30] = molecular target: Gal(b1-3)[Neu5Ac(a2-6)]GalNAc
In short: as §1

[31] = molecular target: Gal(b1-3)[Neu5Ac(a2-6)]GlcNAc(b1-6)Gal(b1-4)Glc
In short: as §1

[32] = molecular target: Gal(b1-3)[Neu5Ac(b2-6)]GalNAc
In short: as §1

Gal(b1-4)Gal = molecular target: Gal(b1-4)Gal
In short: as §1

[33] = molecular target: Gal(b1-4)GalNAc(a1-3)[Fuc(a1-2)]Gal(b1-4)GlcNAc
In short: as §1

[34] = molecular target: Gal(b1-4)GalNAc(b1-3)[Fuc(a1-2)]Gal(b1-4)GlcNAc
In short: as §1

Gal(b1-4)Glc = molecular target: Gal(b1-4)Glc
In short: as §1

Gal(b1-4)Glc6S = molecular target: Gal(b1-4)Glc6S
In short: as §1

Gal(b1-4)GlcNAc = molecular target: Gal(b1-4)GlcNAc
In short: as §1

[35] = molecular target: Gal(b1-4)GlcNAc(a1-6)Gal(b1-4)GlcNAc
In short: as §1

Gal(b1-4)GlcNAc(b1-2)Man = molecular target: Gal(b1-4)GlcNAc(b1-2)Man
In short: as §1

[36] = molecular target: Gal(b1-4)GlcNAc(b1-2)Man(a1-3)Man(b1-4)GlcNAc(b1-4)GlcNAc
In short: as §1

[37] = molecular target: Gal(b1-4)GlcNAc(b1-2)Man(a1-3)[Gal(b1-4)GlcNAc(b1-2)Man(a1-6)]Man(b1-4)GlcNAc(b1-4)GlcNAc
In short: as §1

[38] = molecular target: Gal(b1-4)GlcNAc(b1-2)Man(a1-3)[Gal(b1-4)GlcNAc(b1-2)Man(a1-6)]Man(b1-4)GlcNAc(b1-4)[Fuc(a1-6)]GlcNAc
In short: as §1

[39] = molecular target: Gal(b1-4)GlcNAc(b1-2)Man(a1-3)[Gal(b1-4)GlcNAc(b1-2)][GlcNAc(b1-4)]Man(b1-4)GlcNAc(b1-4)GlcNAc
In short: as §1

[40] = molecular target: Gal(b1-4)GlcNAc(b1-2)Man(a1-3)[GlcNAc(b1-2)Man(a1-6)]Man(b1-4)GlcNAc(b1-4)GlcNAc
In short: as §1

[41] = molecular target: Gal(b1-4)GlcNAc(b1-2)Man(a1-3)[Man(a1-6)]Man(b1-4)GlcNAc(b1-4)GlcNAc
In short: as §1

[42] = molecular target: Gal(b1-4)GlcNAc(b1-2)Man(a1-6)Man(b1-4)GlcNAc(b1-4)GlcNAc
In short: as §1

[43] = molecular target: Gal(b1-4)GlcNAc(b1-2)Man(a1-6)[GlcNAc(b1-2)Man(a1-3)]Man(b1-4)GlcNAc(b1-4)GlcNAc
In short: as §1

[44] = molecular target: Gal(b1-4)GlcNAc(b1-2)Man(a1-6)[Man(a1-3)]Man(b1-4)GlcNAc(b1-4)GlcNAc
In short: as §1

[45] = molecular target: Gal(b1-4)GlcNAc(b1-2)[Gal(b1-4)GlcNAc(b1-4)]Man(a1-3)[Gal(b1-4)GlcNAc(b1-2)Man(a1-6)]Man(b1-4)GlcNAc(b1-4)GlcNAc
In short: as §1

[46] = molecular target: Gal(b1-4)GlcNAc(b1-2)[Gal(b1-4)GlcNAc(b1-4)]Man(a1-3)[Gal(b1-4)GlcNAc(b1-2)[Gal(b1-4)GlcNAc(b1-6)]Man(a1-6)]Man(b1-4)GlcNAc(b1-4)GlcNAc
In short: as §1

B1: CvGal1 (Crassostrea virginica), A7Y0I5 (protein)
chain: MTYQISKISQPFTSYIPNGLHIGKHLLLRGRVSYGTEAFAINLQQNPEPCNGEVAFHFNPRPGEQQCVRNSFDGGSWMDEERDQPHFPFDEGRSFTLRIEVAEEGFRTYVNGKPYVNFSHRLDLGNVHYLYLTEGAEFYDISYQDRYTLPYKSEIPQQMNVGKAVRIRGASQDNDGFSVNFACDPDNENCAFHFNPRPNEGVVVRNANLGGWGDEERDYEAEFPFHPYNYFDAMFICTDDKYLVHVNDKYFTEFNHRGGVDASSFFNIVGNLDIQDVEYFEPLEDDFVKTIPSGLVKGDVLIFRGFMKPGGDTFSINFMNGYSVEDDIAFHLNPRVGEGQVVMNCCMGGAWGDEEREDIPSPLADREPFEVKVVVKKNKFKVYVNGKKCMKFAARGNLEDIKGVNIKGEAYVYEVKLERKLEDSWEYLPGGFRVGGWVVVQAIPKKGSEGFAINFRTGSDEDSDIAFHFNPRLQENCTIRNSCAGGAWGGEERDQPDFPFEKKDTCEIAIQAQPDRFVTYVNGKRYIEFNHRLPLESITCVELTGRADFFEPKFF
Gal(a1-4)Gal(b1-4)GlcNAc
  glycan array binding signal (z-score): -0.276
[1]
  glycan array binding signal (z-score): -0.244
[2]
  glycan array binding signal (z-score): -0.304
Gal(a1-4)GlcNAc
  glycan array binding signal (z-score): -0.271
Gal(a1-6)Glc
  glycan array binding signal (z-score): -0.273
Gal(b1-2)Gal
  glycan array binding signal (z-score): -0.276
Gal(b1-3)Gal
  glycan array binding signal (z-score): -0.302
Gal(b1-3)Gal(b1-4)GlcNAc
  glycan array binding signal (z-score): 0.202
[3]
  glycan array binding signal (z-score): 0.23
Gal(b1-3)GalNAc
  glycan array binding signal (z-score): -0.261
[4]
  glycan array binding signal (z-score): 3.55
[5]
  glycan array binding signal (z-score): 2.92
[6]
  glycan array binding signal (z-score): -0.244
[7]
  glycan array binding signal (z-score): -0.272
[8]
  glycan array binding signal (z-score): -0.218
Gal(b1-3)GlcNAc
  glycan array binding signal (z-score): -0.202
[9]
  glycan array binding signal (z-score): 2.61
[10]
  glycan array binding signal (z-score): -0.294
[11]
  glycan array binding signal (z-score): 0.06
[12]
  glycan array binding signal (z-score): -0.265
[13]
  glycan array binding signal (z-score): -0.226
[14]
  glycan array binding signal (z-score): -0.209
[15]
  glycan array binding signal (z-score): 0.1
[16]
  glycan array binding signal (z-score): 0.159
[17]
  glycan array binding signal (z-score): 0.004
[18]
  glycan array binding signal (z-score): 1
[19]
  glycan array binding signal (z-score): 0.126
[20]
  glycan array binding signal (z-score): -0.25
[21]
  glycan array binding signal (z-score): -0.271
[22]
  glycan array binding signal (z-score): -0.262
Gal(b1-3)GlcNAc6S
  glycan array binding signal (z-score): -0.281
[23]
  glycan array binding signal (z-score): -0.234
[24]
  glycan array binding signal (z-score): -0.231
[25]
  glycan array binding signal (z-score): -0.24
[26]
  glycan array binding signal (z-score): -0.099
[27]
  glycan array binding signal (z-score): -0.224
[28]
  glycan array binding signal (z-score): -0.24
[29]
  glycan array binding signal (z-score): -0.254
[30]
  glycan array binding signal (z-score): -0.254
[31]
  glycan array binding signal (z-score): -0.228
[32]
  glycan array binding signal (z-score): -0.29
Gal(b1-4)Gal
  glycan array binding signal (z-score): -0.266
[33]
  glycan array binding signal (z-score): 4.11
[34]
  glycan array binding signal (z-score): 0.428
Gal(b1-4)Glc
  glycan array binding signal (z-score): -0.253
Gal(b1-4)Glc6S
  glycan array binding signal (z-score): -0.264
Gal(b1-4)GlcNAc
  glycan array binding signal (z-score): -0.263
[35]
  glycan array binding signal (z-score): -0.289
Gal(b1-4)GlcNAc(b1-2)Man
  glycan array binding signal (z-score): -0.265
[36]
  glycan array binding signal (z-score): -0.222
[37]
  glycan array binding signal (z-score): -0.155
[38]
  glycan array binding signal (z-score): -0.268
[39]
  glycan array binding signal (z-score): -0.195
[40]
  glycan array binding signal (z-score): -0.298
[41]
  glycan array binding signal (z-score): -0.239
[42]
  glycan array binding signal (z-score): -0.233
[43]
  glycan array binding signal (z-score): -0.207
[44]
  glycan array binding signal (z-score): -0.266
[45]
  glycan array binding signal (z-score): 0.455
[46]
  glycan array binding signal (z-score): -0.065
